Measurements from PubChem BioAssay AID1963576 (National Center for Advancing Translational Sciences (NCATS), 2024).
The whole screen tested about 46,000 compounds, of which about 60 (0.1%) were called active. Roughly 3% stayed inconclusive and do not appear here. Calls follow the shape of the dose curve; as a rule, active = well fitted inhibition curve with a large enough effect; inconclusive = small, poorly fitted or top-dose-only effect; inactive = no such curve, though single readings can be large or run the other way. The list shows a part of the results.

Assay: Primary qHTS assay for Inhibitors of ovarian cancer metastasis using an organotypic tumor microenvironment (TME) model. Also: nearly all actives have a fitted effect of over 65% in size.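 As to activity change, negative = inhibition: plate controls were DMSO wells for no effect and tomatine positive control wells for full effect.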
Details: SKOV3ip1-GFP adhesion/invasion on 3D omental model, fluorescence; series mostly up to 45.8 µM; activity change, negative = inhibition: at the top concentration
Method in brief: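 Primary human omental fibroblast/mesothelial 3D culture pre-formed 48 h. SKOV3ip1-GFP cells added with compounds (0.36-46 umol/L), incubated 2 h RT/16 h 37 C, fixed; GFP cells quantified at 488/509 nm.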

Activity change, negative = inhibition, inactive:
COc1ccc(NC(=O)c2ccc(CN3C(=O)CCn4nc(C)cc43)cc2)c(OC)c1 -7.82%
CCOC(=O)c1c(NC(=O)COc2cccc(C(F)(F)F)c2)sc2c1CCC(C)C2 (centres undefined) 9.19%
CC(C)CCNC(=O)CN1C(=O)CCn2nc(-c3cn(C)c4ccccc34)cc21 8.88%
COc1ccc(C)c2sc(NC(=O)c3ccc(S(=O)(=O)N4CCCCC4)cc3)nc12 -3.23%
CCOc1ccc(NC(=O)CSc2oc(-c3ccco3)nc2S(=O)(=O)c2ccc(C)cc2)cc1 11%
COc1ccc(N2CC(NC(=O)COc3ccccc3F)CC2=O)cc1OC (centres undefined) 19.6%
CCOc1ccc(CCNC(=O)c2ccc(-c3nc(CSc4ccc(C)cc4)c(C)o3)cc2)cc1 -2.82%
Cc1nnc(SCc2cc(=O)c3ccccc3[nH]2)s1 -1.05%
Cc1nc(S(=O)(=O)N2CCN(c3ccc(Cl)cc3)CC2)cn1C 47.7%
CCCOc1ccc(/C=C/C(=O)Nc2sc(C)c(C)c2C(=O)OCC)cc1OC -0.799%
CCCN1CCN(CCCNC(=O)c2cc3c(Cl)nc4ccccc4c3s2)CC1 -4.48%
COC(=O)c1cc(NC(=O)Nc2ccc3snnc3c2)cc(C(=O)OC)c1 11.1%
CC[C@H](CC[C@@H](C)[C@H]1CC[C@H]2[C@@H]3CC=C4C[C@@H](O)CC[C@]4(C)[C@@H]3CC[C@]12C)C(C)C -10.5%
Cc1cccc(C)c1NC(=O)CN1C(=O)CCSc2ccc(S(=O)(=O)N3CCCC3)cc21 -9.47%
COc1ccc(N(CC(=O)Nc2ccc(C)c(C)c2)S(=O)(=O)c2ccc(C)cc2)cc1OC -1.35%
Cc1ccc(C)c(N2C(=O)N(Cc3c(F)cccc3Cl)c3ccccc3S2(=O)=O)c1 -10.6%
CCN(Cc1nc(-c2cccc(C)c2)no1)S(=O)(=O)c1ccc(C)cc1 -16.3%
CC(=O)OCc1cc(=O)n2nc(C3CCCCC3)sc2n1 -10.3%
Cc1ccccc1-c1noc(-c2ccc(N3CCN(c4ccccc4)CC3)c([N+](=O)[O-])c2)n1 -2.39%
COc1ccccc1N1CCN(C(=O)c2cc3c(=O)n(C)c4ccccc4c3s2)CC1 -7.65%
COc1ccc(-c2nc(SCC(=O)NC3CCCC3)c(-c3ccc(OC)cc3)[nH]2)cc1 35.6%
COc1ccc(CNC(=O)Cn2nc(C)n3cccc3c2=O)cc1 -4.78%
Cc1c(Cl)cccc1-n1ncc(C(=O)N2CCN(C)CC2)c1C1CCN(C(=O)OC(C)(C)C)CC1 11.4%
CC1CCN(C(=O)c2ccc3c(c2)N(Cc2ccccc2F)C(=O)c2ccccc2S3(=O)=O)CC1 12.4%
Cc1ccc(NC(=O)C(=O)NCC(c2cccnc2)N2CCOCC2)cc1 (centres undefined) 0.245%
O=C(Nc1ncc(-c2cc(C(F)F)nn2-c2c(Cl)cccc2Cl)s1)C1CC1 44.5%
CCc1ccc(NC(=O)CC(c2cc(OC)c(OC)c(OC)c2)N2Cc3ccccc3C2=O)cc1 (centres undefined) -12.3%
O=C(CSc1nc(-c2cccs2)nc2cc(=O)[nH]n12)Nc1ccccc1 -21.8%
COc1ccc(C(=O)NCCn2cc(SCc3cccc(F)c3)c3ccccc32)cc1OC -17%
CCCN(CCC)CCNC(=O)Cn1cnc2sc(C)c(S(=O)(=O)N3CCC(C)CC3)c2c1=O 8.01%
FC(F)(F)c1cccc(-n2cc(-c3ccccc3)c3c(N4CCCCC4)ncnc32)c1 -6.22%
COc1ccc(CCNC(=O)Cn2cc(C(=O)c3ccc(Cl)cc3)c(=O)c3ccc(C)nc32)cc1OC 4.4%
Cc1ccc(N2CC(C(=O)NCCS(=O)(=O)N3CCN(c4ccccc4)CC3)CC2=O)cc1 (centres undefined) 3.94%
Cn1c(=O)n(C)c2cc(NS(=O)(=O)c3ccc(F)cc3)c(NCc3ccccc3)cc21 3.76%
CCOC(=O)c1cccc(NC(=O)Cn2nc3c(cc2=O)CCCC3)c1 3.64%
COc1ccc(CNC(=O)c2cc3c(-c4ccc(Cl)cc4)nn(C)c3s2)cc1 -25.6%
COCCN1C(=O)c2oc3cc(C)cc(C)c3c(=O)c2C1c1cccc(O)c1 (centres undefined) -4.55%
COc1ccc(S(=O)(=O)N(CCc2ccccc2)CC(=O)NCc2ccccc2)cc1 -2.77%
CCCn1cc(S(=O)(=O)c2cccc(Cl)c2)c(=O)c2cc(F)c(N3CCOCC3)cc21 -1.02%
O=S(=O)(Nc1ccc(-c2ccc(N3CCCCC3)nn2)cc1)c1ccc(OC(F)(F)F)cc1 -28.4%
Cc1c(C(=O)NC(C)c2ccccc2)sc2ncnc(N(C)C3CCCCC3)c12 (centres undefined) -2.24%
Cc1ccc(-c2c(CN3CCN(c4cc(C)ccc4C)CC3)csc2C)cc1 3.54%
CCc1ccccc1NC(=O)CN1C(=O)CCn2nc(-c3cccn3C)cc21 -3.88%
CCc1ccc(NC(=O)c2cnn(-c3c(C)cccc3C)c2C2CCN(C(=O)OC(C)(C)C)CC2)cc1 10.8%
CCOC(=O)c1[nH]c2c(c1Cc1ccccc1C)C(=O)CC(c1ccccc1)C2 (centres undefined) -0.0887%
COC(=O)c1ccc(NC(=O)n2ncc3c(C)cccc32)cc1 -3.57%
CC1=C(c2ccc(C(C)C)cc2)S(=O)(=O)N=C1N1CCC(C(=O)Nc2ccc(C)cc2)CC1 -3.18%
COc1ccc(-c2cn3c(n2)sc2cc(C(=O)Nc4ccc(C)c(Cl)c4)ccc23)cc1 -2.2%
CCOC(=O)c1c(C)[nH]c(C)c1S(=O)(=O)N1CCC(C(=O)Nc2ccccc2CC)CC1 3.28%
Cn1c(=O)cc(SCC(=O)NCc2ccc(F)cc2)c2cc(Cl)ccc21 6.77%
Cc1ccc(S(=O)(=O)N2CCN(Cc3cc(=O)n4nc(-c5ccccc5Cl)sc4n3)CC2)cc1 -13.5%
O=C(NCCc1ccccc1)C(=O)NCC(c1cccs1)S(=O)(=O)c1cccs1 (centres undefined) -0.94%
CC1(C)N=C(SCc2ccc(Cl)cc2)c2ccccc2N1 1.45%
Cc1cc(=O)[nH]c2nnc(SCc3ccccc3F)n12 7.46%
Cc1c(C(=O)N2CCCCCC2)c(S(=O)(=O)Nc2cccc(C#N)c2)c(C)n1C 2.04%
CCCCNC(=O)CSc1nc2cc3c(cc2c(=O)n1Cc1ccc(C(=O)NCCc2ccc(OC)c(OC)c2)cc1)OCO3 -7.26%
COc1ccc(NC(=O)N2CCCn3nc(C)cc32)cc1OC 14.8%
Cn1c(=O)c(=O)n(C)c2cc(NS(=O)(=O)c3ccc(Br)cc3)c(Cl)cc21 4.8%
CCc1ccc(-n2nc(CO)c(C(=O)NCc3ccccc3Cl)n2)cc1 -6.38%
COc1ccc(-c2cc3ccc(O)c(CN4CCCC(C)C4)c3oc2=O)cc1OC (centres undefined) -18.5%
O=C(NCc1cccc(Cl)c1)c1ccc(NC(=O)N2CCSc3ccccc32)cc1 3.46%
O=C(CCC(=O)N1Cc2ccccc2Oc2ncccc21)NCc1cccc(Cl)c1 11.1%
CC(Oc1ccccc1)C(=O)Nc1ccc(C(=O)OCc2cc(=O)n3nc(C4CC4)sc3n2)cc1 (centres undefined) -9.69%
CCn1c(C(=O)NCc2ccccc2Cl)cc2sc(Cl)cc21 -8.83%
Cc1ccc(CN2C(=O)SC(Nc3ccc(Cl)cc3)C2=O)cc1 (centres undefined) 8.15%
Cc1nn(C)c(C)c1S(=O)(=O)N(CC(=O)Nc1ccc(F)cc1F)c1ccc(C(C)C)cc1 -0.519%
COc1ccc(NC(=O)Cn2c(=O)n(-c3ccc(C)cc3)c(=O)c3c2c2cc(C)ccc2n3C)cc1 2.14%
Cc1ccc(Cc2c(C)nc3nc(SCC(=O)NCCC(C)C)nn3c2C)cc1 -22.1%
COc1cccc(CNC(=O)C(=O)NCC(c2ccco2)S(=O)(=O)c2ccccc2)c1 (centres undefined) 21.6%
O=C(CN1C(=O)CCn2nc(-c3ccccc3)cc21)NCc1ccccc1 2.21%
O=C(Nc1onc2c1CCCC2)c1ccccc1 -6.37%
CCCOc1cccc(C2c3c(oc4ccc(F)cc4c3=O)C(=O)N2CCc2ccc(OC)cc2)c1 (centres undefined) 3.59%
Cc1ccccc1-c1nc(CS(=O)(=O)CC(=O)NCCCc2ccccc2)c(C)o1 5.3%
COc1ccc(-n2nc(C(=O)NCCc3ccc(OC)c(OC)c3)c3c4ccccc4n(C)c3c2=O)cc1 0.313%
COc1cccc(C2C(C(=O)Nc3ccccc3OC)=C(C)Nc3nc(-c4ccco4)nn32)c1 (centres undefined) -28.6%
COc1ccccc1CNC(=O)c1cnc2sc(N3CCCCC3)nn2c1=O -3.35%
COc1ccc(C(=O)NCC(c2ccc(Cl)cc2)N2CCCCC2)cc1 (centres undefined) 9.6%
COc1ccccc1CNC(=O)Cn1nc(C)n2cccc2c1=O -7.89%
CCC(C(=O)Nc1cc(C(F)(F)F)ccc1Cl)n1nc(C)c2sc3ccccc3c2c1=O (centres undefined) 5.41%

outcome, inactive:
Cc1cc(C)cc(Nc2ncnc3c2nc2n3CCCC2)c1
CCCOc1ccc(NC(=O)CC2C(=O)N(c3ccc(C)cc3)C(=O)N2C(C)C)cc1 (centres undefined)
O=C(COc1ccccc1)Nc1sc2c(c1C(=O)Nc1ccccc1Cl)CCCCC2
COc1ccc(S(=O)(=O)n2nc(C)c(S(=O)(=O)N3CCCCC3)c2C)cc1
COCCCN(Cc1ccco1)C(=O)c1cc2c(s1)-c1ccccc1OC2
CC(=O)c1ccc(N2CCN(c3ncnc4c3c(-c3ccccc3)cn4-c3ccc(C)c(Cl)c3)CC2)cc1
COc1ccccc1-c1noc(-c2ccc(N3CCOCC3)c([N+](=O)[O-])c2)n1
COc1ccccc1CNC(=O)CN1C(=O)CCc2cc(S(=O)(=O)N3CCCCC3)ccc21
CCOC(=O)C1CCN(c2nc3c(S(=O)(=O)c4ccc(Br)cc4)nnn3c3ccsc23)CC1
Cc1nn(-c2ccc(N3CCCCC3)nn2)c(C)c1CCC(=O)NCc1ccc(F)cc1
CCOc1ccc(-c2nnc(SCC(=O)Nc3ccc(C)cc3C)o2)cc1
Cc1cc2[nH]c(=O)c(=O)[nH]c2cc1S(=O)(=O)N1CCN(c2ccccc2)CC1
COc1ccc(Cc2nc3ccccc3n2Cc2ccccc2C)cc1
CCC(Sc1nnc2c3ccccc3n(CC)c2n1)C(=O)Nc1ccc(NC(C)=O)cc1 (centres undefined)
O=C(Cn1cnc2onc(-c3ccc(F)cc3)c2c1=O)N1CCN(c2ccc(F)cc2)CC1
